According to PubChem BioAssay AID504832 (National Center for Advancing Translational Sciences (NCATS), 2011):
Out of some 310,000 compounds screened, about 18,000 (5.8%) were called active. This list was built around the results that the source calls inconclusive (neither active nor inactive); the mix of calls is not that of the screen. Calls come from the whole dose curve; as a rule, active = well fitted inhibition curve with a large enough effect; inconclusive = small, poorly fitted or top-dose-only effect, or another doubt; inactive = no such curve, though single readings can be large or run the other way. No potency is given beside an inconclusive call; the fits are too rough.
Potency is the fitted concentration of half-maximal effect; tags give direction and shape of the fitted curve.

Assay: Primary qHTS for delayed death inhibitors of the malarial parasite plastid, 48 hour incubation
Settings: P. falciparum luciferase growth in erythrocytes; series mostly up to 28.7 µM
Summary of the method: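 Growth was read as firefly luciferase luminescence after a 48 h, 37 C, 5% CO2 exposure of compounds to reporter-bearing P. falciparum cultures (0.1% parasitemia, 2% hematocrit final) in Albumax-supplemented RPMI 1640.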
For `O=C(COc1cccc2c1CCN(Cc1ccc(Br)cc1)C2=O)NCc1ccco1`, the Potency was inconclusive [inhibitor, partial curve].
For `COc1ccccc1NC(=O)NCCC1=CCCCC1`, the Potency was inconclusive [inhibitor, partial curve].
For `CCOc1cc(N2CCOCC2)c(OCC)cc1NC(=O)c1ccc(NC(C)=O)cc1`, the Potency was inconclusive [inhibitor, partial curve].
With `CC(=O)SC(C[N+](=O)[O-])c1cn(C(C)=O)c2ccccc12` (stereo not given) the Potency was inconclusive [inhibitor, full curve, poor fit].
For `COc1ccc(/C=C(\NC(=O)c2ccccc2)C(=O)NC2CCS(=O)(=O)C2)cc1` (stereo not given), the Potency was inconclusive [inhibitor, single point].
With `COC1C(OC(=O)/C=C/C=C/C=C/C=C/C(=O)O)CCC2(CO2)C1C1(C)OC1CC=C(C)C` (stereo not given) the Potency was active: 0.0038 µM.
For `CN1\C(=C/C=C/C=C/C=[N+](C)C)C(C)(C)c2ccccc21`, the Potency was inconclusive [inhibitor, partial curve].
With `O=C(C1=C[C@@H](c2coc3ccccc3c2=O)C[C@@H](OCCCCO)O1)N1CCN(Cc2ccc3c(c2)OCO3)CC1` the Potency was inconclusive [inhibitor, full curve, poor fit].
In the case of `COc1ccc(N(CC(=O)N2CCN(c3ccc(F)cc3)CC2)S(=O)(=O)c2c(C)noc2C)cc1`, the Potency is reported as inconclusive [inhibitor, single point].
In the case of `CCn1c(-c2ccccc2Cl)nn(CC(=O)NCCc2ccccc2)c1=S`, the Potency is reported as “inactive”.
In the case of `COc1ccccc1CC(=O)Nc1ccc2[nH]ncc2c1`, the Potency is reported as active: 10.4 µM.
In the case of `Cc1ccc(-n2cc(-c3ccc([N+](=O)[O-])cc3)[nH]c2=S)c(C)c1`, the Potency is reported as inconclusive [inhibitor, single point].
For `CC(=O)Nc1ccc(C(=O)NCC(=O)OCc2c(F)cccc2Cl)cc1`, the Potency was “inactive”.
With `COc1ccc(C(O)c2nc3ccccc3n2C(C)C)cc1` (stereo not given) the Potency was inconclusive [inhibitor, single point].
In the case of `Cc1cc(C)cc(C(=O)Nc2nc3ccccc3[nH]2)c1`, the Potency is reported as inconclusive [inhibitor, single point].
With `COc1ccc2c(c1)c(=O)oc1c(C)c(OC(C)C(=O)NCC3CCC(C(=O)O)CC3)ccc12` (stereo not given) the Potency was inconclusive [inhibitor, single point].
In the case of `CCCc1cc(=O)oc2cc(OCC(=O)Nc3ccc(CN4CCOCC4)cc3)c(Cl)cc12`, the Potency is reported as inconclusive [inhibitor, single point].
With `NC(=O)c1cccc(N=Cc2cc(Cl)cc(Cl)c2O)c1` the Potency was inconclusive [inhibitor, single point].
For `CN1C(=O)/C(=C/c2ccc3c(c2)OCO3)N=C1c1ccccc1`, the Potency was “inactive”.
For `C=CCn1c(SCC(=O)NC2CCCC2)nnc1-c1ccccn1`, the Potency was “inactive”.
For `O=C(Nc1ccccn1)C12CC3CC(C1)CC(C(=O)Nc1ccccn1)(C3)C2`, the Potency was inconclusive [inhibitor, partial curve].
In the case of `COc1ccc2cc(/C=N/NC(=O)c3ccc(CN(c4cccc(Cl)c4Cl)S(C)(=O)=O)cc3)c(Cl)nc2c1`, the Potency is reported as inconclusive [inhibitor, single point].
For `COc1cc(CN2CCC(n3nccc3NC(=O)c3ccccc3OC)CC2)ccc1F`, the Potency was inconclusive [inhibitor, single point].
For `COc1cc(/C=N/NC(=O)C(=O)/C=C2\NC3(CCCC3)Cc3ccccc32)ccc1O`, the Potency was inconclusive [inhibitor, single point].
With `COc1cccc(CNC(=O)CCCCCn2c(=S)[nH]c3ccc(N4CCOCC4)cc3c2=O)c1` the Potency was inconclusive [inhibitor, partial curve, poor fit].
In the case of `COc1ccc(/C=N/N(C(C)=O)c2nc(-c3ccc(C)cc3)cs2)cc1`, the Potency is reported as inconclusive [inhibitor, full curve].
For `Cc1ccccc1-c1nn(-c2ccc(F)cc2F)cc1CNCC(C)O` (stereo not given), the Potency was inconclusive [inhibitor, single point].
For `CCCCNC(=O)CCCCC(=O)N/N=C/c1cccc(Cl)c1`, the Potency was inconclusive [inhibitor, single point].
With `O=C(Nc1ccc(N2CCCC2)cc1)C(Cl)c1ccccc1` (stereo not given) the Potency was inconclusive [inhibitor, single point].
In the case of `CC(C)[C@H](NC(=O)c1ccccc1)C(=O)Nc1cccc(S(=O)(=O)N2CCOCC2)c1`, the Potency is reported as inconclusive [inhibitor, single point].
For `CN(C)CCSc1nc(-c2ccccc2)nc2c1CCCC2`, the Potency was inconclusive [inhibitor, single point].
With `CCOc1cc(/C=N/NC(=O)c2ccccn2)ccc1OC(=O)c1cccs1` the Potency was “inactive”.
In the case of `COc1ccc(NC(C)c2ccccc2)cc1` (stereo not given), the Potency is reported as “inactive”.
In the case of `CCc1c(C)nc2[nH]nc(-c3ccccc3)n2c1=O`, the Potency is reported as “inactive”.
For `O=C(c1cccc(C(F)(F)F)c1)N1CCC(O)(CS(=O)(=O)Cc2ccccc2Cl)CC1`, the Potency was inconclusive [inhibitor, partial curve, poor fit].
In the case of `C=C(C)C1CCC(C)=C1COC(=O)Nc1ccccc1` (stereo not given), the Potency is reported as “inactive”.
For `O=C(/C=C/c1ccc(Cl)cc1Cl)c1cccnc1`, the Potency was inconclusive [inhibitor, full curve].
In the case of `COc1ccc(-n2c(-c3ccc(Br)cc3)c[n+]3c2CCc2ccccc2-3)cc1`, the Potency is reported as active: 1.85 µM.
In the case of `CC(C)(C)NNC(=S)Nc1cccc(F)c1`, the Potency is reported as active: 10.4 µM.
In the case of `CC(C)(C)c1ccc(N/N=C(\C#N)S(=O)(=O)C(C)(C)C)cc1`, the Potency is reported as inconclusive [inhibitor, partial curve, poor fit].
In the case of `Cc1cccc(S(=O)(=O)c2c(N)n(Cc3ccco3)c3nc4ccccc4nc23)c1`, the Potency is reported as active: 8.28 µM.
With `CCC(CC)CN1C(Nc2ccccc2)=NC[C@@H]1CC(C)C` the Potency was inconclusive [inhibitor, single point].
In the case of `CCc1ccccc1N1CSC2=C(C#N)C(c3cc(OC)c(OC)cc3OC)CC(=O)N2C1` (stereo not given), the Potency is reported as active: 13.1 µM.
In the case of `COc1ccc(C)cc1S(=O)(=O)Nc1ccc2c(c1)N(C(C)=O)CCC2`, the Potency is reported as inconclusive [inhibitor, partial curve].
For `CCCCNC(=O)/C(C#N)=C/c1ccc2c(c1)OCCO2`, the Potency was “inactive”.
In the case of `c1csc(-n2nc3ccccc3n2)c1`, the Potency is reported as “inactive”.
With `O=C(Nc1ccc(F)cc1F)c1cccn(Cc2ccccc2)c1=O` the Potency was active: 14.7 µM.
In the case of `O=C(NCC1OCCc2ccccc21)c1cc(COc2c(F)cccc2F)on1` (stereo not given), the Potency is reported as “inactive”.
For `CCNC(=S)Nc1sc2c(c1C#N)CCC(C)C2` (stereo not given), the Potency was inconclusive [inhibitor, partial curve].
In the case of `Cc1ccc(NC(=O)Cn2c(=O)oc3ccccc32)c(C)c1`, the Potency is reported as “inactive”.
With `O=C(COc1coc(CN2CCc3ccccc32)cc1=O)NCCc1ccccc1` the Potency was inconclusive [inhibitor, single point].
In the case of `CCN(CC)c1ccc(NC(=O)Cn2c(C(C)NC(=O)c3ccc(C)cc3)nc3ccccc32)cc1` (stereo not given), the Potency is reported as inconclusive [inhibitor, partial curve, poor fit].
With `O=C(CCC(=O)NCc1ccccc1)NCc1ccccc1` the Potency was “inactive”.
With `CC(C)C(c1nnnn1C1CCCC1)N1CCCc2ccccc21` (stereo not given) the Potency was active: 13.1 µM.
For `FC(F)(F)c1cccc(Cc2noc(CN3CCCCC3c3ccccn3)n2)c1` (stereo not given), the Potency was inconclusive [inhibitor, single point].
In the case of `O=C(NN1CCOCC1)c1ccccc1Br`, the Potency is reported as “inactive”.
For `Cc1cc(C)c(S(=O)(=O)NCc2csc(C)n2)c(C)c1`, the Potency was “inactive”.
For `O=C(NC1CCCCC1)C(c1ccc2ncccc2c1)N(Cc1ccc(F)cc1)C(=O)c1cccs1` (stereo not given), the Potency was active: 8.28 µM.
In the case of `O=C(COc1ccccc1F)Nc1cc(S(=O)(=O)Nc2cccc(Cl)c2)ccc1O`, the Potency is reported as inconclusive [inhibitor, single point].
For `CCOc1ccccc1-c1ccc(C(=O)NCc2ccccc2)o1`, the Potency was inconclusive [inhibitor, partial curve, poor fit].
For `Cc1ccc(C)c(N2CCN(C(=O)CCCOc3cc(=O)n(C)c4ccccc34)CC2)c1`, the Potency was inconclusive [inhibitor, single point].
With `COc1ccc(C(=O)Nc2ccccc2C(=O)NCc2cccnc2)cc1OC` the Potency was inconclusive [inhibitor, full curve, poor fit].
With `CC/C(=N\NC(=O)C1CCCC1)c1ccc(Br)cc1` the Potency was “inactive”.
With `O=C(CSc1nc2nc3c(cc2c(=O)n1-c1ccccc1)CCCC3)Nc1cccc2ccccc12` the Potency was active: 5.86 µM.
In the case of `Cc1nc2cc(NC(=O)c3ccc(S(=O)(=O)N(C)c4ccccc4)cc3)ccc2o1`, the Potency is reported as inconclusive [inhibitor, partial curve].
For `CC1CCCCN1CCNC(=O)C1CCCN(S(=O)(=O)c2cccc3nsnc23)C1` (stereo not given), the Potency was inconclusive [inhibitor, partial curve, poor fit].
In the case of `O=C(COc1ccccc1C(=O)NCc1ccccc1)Nc1ccccc1`, the Potency is reported as inconclusive [inhibitor, single point].
With `COC(=O)c1coc(-c2ccc(C)cc2)c1C(=O)OC` the Potency was “inactive”.
For `CCN(C(=O)CN1C(=O)COc2ccc(S(=O)(=O)N3CCOCC3)cc21)c1ccc(OC)cc1`, the Potency was inconclusive [inhibitor, partial curve, poor fit].
For `CC(C)Oc1cccc(C(=O)C2CCCN(C(=O)c3cc(C4CC4)[nH]n3)C2)c1` (stereo not given), the Potency was inconclusive [inhibitor, partial curve, poor fit].
